From PMC3718625, “Acetyl and butyryl cholinesterase inhibitory sesquiterpene lactones from Amberboa ramosa” (Chemistry Central Journal, 2013)

Target: Acetylcholinesterase (electric eel EC 3.1.1.7); AChE (Electrophorus electricus, UniProt O42275)
Experiment: biochemical

Row | SMILES | IC50 [µM]
1 | CC(=O)O[C@H]1C[C@@](C)(OC(CO)CO)[C@@H]2CC=C(C)[C@@H]2[C@H]2OC(=O)[C@@H](C)[C@@H]21 [compound 1, 8α-Acetoxy-10α-(1,3-dihydroxy-2-propyl)-1 α H, 5α H, 6β H, 7α H, 11 β H, 11α-methylguaia-3-enolide] | 1.1 ± 0.08
2 | CC(=O)O[C@H]1C[C@@](C)(O)[C@@H]2CC=C(C)[C@@H]2[C@H]2OC(=O)[C@@H](C)[C@@H]21 [compound 3, Amberbin A] | 8.6 ± 0.15
